“And” between values parts separate entries of the source, which are not always exact repeats. Equal entries are not always repeated.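 Cells were grown in 96-well plates and exposed to each compound for 48 hours at five concentrations; endpoints were interpolated linearly between bracketing concentrations, or set to the highest concentration if not reached. The concentration for 50% growth inhibition is given as GI50. TGI marks complete inhibition of growth.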

The experiment has as its system NCI-H322M lung. Nature of the experiment: NCI-60 cell line screen, 48 h.
As for `COc1cc(C)c(-c2ccc(=O)c(OC)cc2C)c(OC)c1OC`, the GI50 was > 100 µM and 59.6 µM; the TGI was above 100 µM.

Turning to `NC(N)=Nc1ccc(Oc2cccc(Nc3ccc(Br)c(C(F)(F)F)c3)c2)cc1`, the GI50 was 1.63 µM and the TGI is 3.07 µM.

Consider `Cc1ccc(N2CCN(C3=C(Cl)C(=O)c4ncccc4C3=O)CC2)cc1`, for which the GI50 was 8.7 µM and the TGI was 21 µM.
